Results reported in the RNAGym collection of RNA variant scans (doi:10.1073/pnas.2313332121).
Variants at the background level are over-represented here.

B1: TPR 5TU (parent)
chain: GGAUCUUCUCGAUCUAACAAAAAAGACAAAUCUGCCACAAAGCUUGAGAGCAUCUUCGGAUGCAGAGGCGGCAGCCUUCGGUGGCGCGAUAGCGCCAACGUUCUCAACUAUGACACGCAAAACGCGUGCUCCGUUGAAUGGAGUUUAUCAUG

Variants of: B1
Experiment: polymerase ribozyme fitness, log enrichment relative to wild type (log ratio); higher = more active; in vitro selection for triplet polymerase activity
Outline: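 A single round of triplicate in vitro selection, including frozen incubation at −7 °C, was applied to PCR-built, transcribed mutant libraries of each subunit of a heterodimeric triplet polymerase ribozyme. Illumina sequencing of input and output libraries retained genotypes with ≥10 input reads and ≥1 read per output. Fitness is the base-2 logarithm of genotype enrichment divided by wild-type enrichment, from inverse-variance-weighted replicate averages.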

Variant | polymerase ribozyme fitness (log ratio)
U53A A91C | ≤ -4.2
U53A A91G G124A U139G U146A | -3.5
U53A A91G G126U G140U | ≤ -4.2
U53A A91U C93U U104G | ≤ -4.2
U53A A91U G92A | ≤ -4.2
U53A A97U C114U G140U | ≤ -4.2
U53A A107U U144G | -2.6
U53A A110C | ≤ -4.2
U53A A115U | -2.87
U53A A119U | -2.1
U53A A120G | -1.88
U53A A138U | ≤ -4.2
U53A C54A C108G G140A | ≤ -4.2
U53A C54A G68U G84A C96U | ≤ -4.2
U53A C54U C57A G86A | -2.08
U53A C54U C85G | -2.55
U53A C54U U55A C57U U77A A97G A119U | ≤ -4.2
U53A C57A U102G C125A U134A | ≤ -4.2
U53A C57G C75U A97U U102G G140A | ≤ -4.2
U53A C57G C95G | -4.01
U53A C57G G74C C87A C93A C149A | ≤ -4.2
U53A C57U A107G A115G | ≤ -4.2
U53A C57U C87U A110U A138C | ≤ -4.2
U53A C63A A66G G67A G84A A97G | ≤ -4.2

Variant | polymerase ribozyme fitness (log ratio)
U53A C69U C87G G88A G136U | ≤ -4.2
U53A C72G C85U U127A | ≤ -4.2
U53A C72G C96G A113C G143A | ≤ -4.2
U53A C72G U77A C93U C103A C116G C125U G143U | ≤ -4.2
U53A C75G C76U U82A C95U G128A | ≤ -4.2
U53A C75G U102G A137U | ≤ -4.2
U53A C75G U109G U139C | ≤ -4.2
U53A C75U G84C | -2.82
U53A C75U G88C | ≤ -4.2
U53A C76A U90C C95G U104G | ≤ -4.2
U53A C76U U77G G141A | ≤ -4.2
U53A C79A U102G U151G | ≤ -4.2
U53A C79A U148A | ≤ -4.2
U53A C79G C87A A115C U146C | ≤ -4.2
U53A C79G C93A U102G A113G C116A U148C | ≤ -4.2
U53A C79G G94A A106G | ≤ -4.2
U53A C85A A89G A107C G126A C131U | ≤ -4.2
U53A C85A C95U A98U G141C | ≤ -4.2
U53A C85G G86A U101G | ≤ -4.2
U53A C85G G100U G128U U135C G140C | ≤ -4.2
U53A C85G G100U U101G | ≤ -4.2
U53A C85G G133C A150C | ≤ -4.2
U53A C85G U90A A91U C99A C118A A120U | ≤ -4.2
U53A C85U A137G A142C | -3.93

Variant | polymerase ribozyme fitness (log ratio)
U53A C85U G88U U90A | ≤ -4.2
U53A C85U G133C | -2.22
U53A C87A A89U G141C | ≤ -4.2
U53A C93A | -3.27
U53A C93A U101C C125U C132U G140U A147C | ≤ -4.2
U53A C93U C108G A147G | ≤ -4.2
U53A C95A A120G | -1.57
U53A C95G C96G U146A | -3.91
U53A C95U | -0.368
U53A C95U A138C | ≤ -4.2
U53A C96A | -2.37
U53A C96G | -2.55
U53A C99U | -2.58
U53A C99U C116U | -1.7
U53A C103U | -0.534
U53A C123U | -0.0861
U53A C131A | -3.17
U53A C149U | -1.57
U53A G58C C96U U135G | -3.98
U53A G59A G84U | -1.32
U53A G59C A60G G84A | -1.76
U53A G59C U77G A91G U102A | ≤ -4.2
U53A G59C U77G A91G U102A U134A | ≤ -4.2
U53A G59U A89U C95U C105G C125G U127C U145A | ≤ -4.2

Variant | polymerase ribozyme fitness (log ratio)
U53A G62C C93A C118G G133A | ≤ -4.2
U53A G62C G84A G136A | -3.58
U53A G67A U102G A120G | ≤ -4.2
U53A G67U C99U A122C | ≤ -4.2
U53A G68A C123U U134G | ≤ -4.2
U53A G70C C114A | ≤ -4.2
U53A G70C G136A | ≤ -4.2
U53A G71A C75A G124C C132U | ≤ -4.2
U53A G74A | ≤ -4.2
U53A G74A G92A C149A | ≤ -4.2
U53A G74A U77A C96U G126C | ≤ -4.2
U53A G81A A91C G100A C125A G140A | ≤ -4.2
U53A G81A C85U G92A | ≤ -4.2
U53A G83A C114U | -3.28
U53A G84A | -2.38
U53A G86A | -2.07
U53A G86A A91C G128C | ≤ -4.2
U53A G86A U104G C132G U135C | ≤ -4.2
U53A G88A A110U | ≤ -4.2
U53A G88C A122U | ≤ -4.2
U53A G88C C96A A110G | ≤ -4.2
U53A G88C U90A G100U G140A | ≤ -4.2
U53A G88U | ≤ -4.2
U53A G92A | -3.87

Variant | polymerase ribozyme fitness (log ratio)
U53A G92C C105U A138C | ≤ -4.2
U53A G92U A107U G136U | ≤ -4.2
U53A G92U C103A | -2.78
U53A G100C | ≤ -4.2
U53A G136A | -0.321
U53A G140C | -3.65
U53A U55A G62C | -2.35
U53A U55A G68U U127G | ≤ -4.2
U53A U55A U56A C76G G86C A137C A142U | ≤ -4.2
U53A U56A C85G G140C | ≤ -4.2
U53A U56A G58A C85U | 0.824
U53A U56A G83A C108G A137U C149U | ≤ -4.2
U53A U56A G152A | -4
U53A U56G A115U A120G | -2.77
U53A U56G U77C U104C | ≤ -4.2
U53A U61A C93U A98G G100A C114U U127G A137U A142C | ≤ -4.2
U53A U77C C103G | ≤ -4.2
U53A U78C G81A G83U G140U | ≤ -4.2
U53A U109G U111A A115U G128A | ≤ -4.2
U53A U130G C131G | ≤ -4.2
U53A U135C A150C | ≤ -4.2
U53A U139C G143U | ≤ -4.2
U53A U144A | -1.56
U53A U144C U145G | -1.92

Variant | polymerase ribozyme fitness (log ratio)
U53A U148A | -3.17
U53C A60U U61A A89U U109G U148A A150U | ≤ -4.2
U53C A66G C85A U111C A119U C131A G136U U146G | ≤ -4.2
U53C A107C | ≤ -4.2
U53C C54G C57A G68A U90G C93G | ≤ -4.2
U53C C57A C95U A98G U104A | -0.528
U53C C57G U61A G124A G128U | -4.14
U53C C76U C93A C105G C118A A120U | ≤ -4.2
U53C G58A C99G | -0.95
U53C G68A C85A U101C | ≤ -4.2
U53C G74A C76G C96U A110U | ≤ -4.2
U53C G86U C96A U146A | -2.73
U53C G88U A97G A107C C114U C131G | ≤ -4.2
U53C G140C | ≤ -4.2
U53C U56C C75U C87A G141C | ≤ -4.2
U53C U61G C99U | ≤ -4.2
U53C U78G U127C U148C | ≤ -4.2
U53G | -1.68
U53G A73C G83U G117U | ≤ -4.2
U53G A73G C85U G126U | -2.37
U53G A97C | -1.81
U53G A97G | -1.44
U53G A97U | -2.68
U53G A110C | ≤ -4.2

Variant | polymerase ribozyme fitness (log ratio)
U53G A137U | ≤ -4.2
U53G C54A | -2.07
U53G C54A C95A C103A C118A | ≤ -4.2
U53G C54G C85A U134A | ≤ -4.2
U53G C54G C96G C114U | ≤ -4.2
U53G C54U C76U U78G C87G A98U | ≤ -4.2
U53G C57A C72U A73U C85G A97C | ≤ -4.2
U53G C57A C75G C93A C123A G133U | ≤ -4.2
U53G C57G G59C G84U U90G C149A | ≤ -4.2
U53G C57U A91G A122U A142C U144A | ≤ -4.2
U53G C69A C99U C118A | ≤ -4.2
U53G C72G C85A U90A A91C | ≤ -4.2
U53G C76G A120C A142U | ≤ -4.2
U53G C79U A91G G140C U144A U145G | ≤ -4.2
U53G C85G U104G G126U | ≤ -4.2
U53G C87A A120U A142U U146A | ≤ -4.2
U53G C87G A91G | ≤ -4.2
U53G C95G G128U | ≤ -4.2
U53G C96A C116U C123U G124U U148A | ≤ -4.2
U53G C99G G117A G141C | ≤ -4.2
U53G C125U | -1.66
U53G G58C G59C U77C G84C C85U A89G C96U A110U | ≤ -4.2
U53G G59A A89U U90C U135G A137G | ≤ -4.2
